Laboratory results as given in PubChem BioAssay AID330 (DTP/NCI, 2004).
“And” between values parts separate entries of the source, which are not always exact repeats. Identical values can stand only once. This continues a long series; more values of the same kind are listed elsewhere. Toxic doses and inconclusive results are not listed.

Test system: P388 leukemia ip, CD2F1 mice, survival T/C
Test: NCI In Vivo Anticancer Drug Screen. Data for tumor model P388 Leukemia (intraperitoneal) in CD2F1 (CDF1) mice
Conditions: endpoint: median survival time, higher = longer survival
Experimental: The antitumor activity of compounds was measured in mice bearing transplantable tumors. Survival or tumor size were measured and the results are expressed as the measurement made in the treated group (T) divided by the measurement made in the vehicle treated control group (C). The tumor model used in this assay is P388 Leukemia (intraperitoneal) in CD2F1 (CDF1) mice

Which T/C (dose: 0.12 mg/kg/injection, schedule: Q04DX003 (ip), vehicle: saline) does the source give for COc1cccc2c1C(=O)c1c(O)c3c(c(O)c1C2=O)C[C@@](O)(C(C)=O)C[C@@H]3OC1CC(N)C(O)C(C)O1 (some centres undefined) here?
The T/C was 92 % of control.

And the T/C (dose: 0.46 mg/kg/injection, schedule: Q01DX009 (ip), vehicle: water)?
The T/C was 163 % of control.

And the T/C (dose: 0.5 mg/kg/injection, schedule: Q04DX003 (ip), vehicle: saline)?
The T/C was 178 % of control.

And the T/C (dose: 0.5 mg/kg/injection, schedule: Q04DX003 (iv), vehicle: saline)?
The T/C was 97 % of control.

And the T/C (dose: 0.63 mg/kg/injection, schedule: Q01DX005 (ip), vehicle: saline)?
The T/C was 176 % of control.

What about the T/C (dose: 0.65 mg/kg/injection, schedule: Q01DX009 (ip), vehicle: saline) of the same compound?
Its T/C is 177 % of control.

What about the T/C (dose: 0.69 mg/kg/injection, schedule: Q01DX009 (ip), vehicle: water) of the same compound?
Its T/C is 166 % of control.

And the T/C (dose: 0.75 mg/kg/injection, schedule: Q04DX003 (ip), vehicle: water)?
The T/C was 119 % of control.

What about the T/C (dose: 0.78 mg/kg/injection, schedule: Q01DX009 (ip), vehicle: saline) of the same compound?
The T/C was 162 % of control.

And the T/C (dose: 1.0 mg/kg/injection, schedule: Q04DX003 (ip), vehicle: saline)?
The T/C was 200 % of control.

And the T/C (dose: 1.0 mg/kg/injection, schedule: Q04DX003 (ip), vehicle: water)?
The T/C was 117 % of control and 114 % of control and 118 % of control.

What about the T/C (dose: 1.04 mg/kg/injection, schedule: Q01DX009 (ip), vehicle: water) of the same compound?
The T/C was 166 % of control.

And the T/C (dose: 1.17 mg/kg/injection, schedule: Q04DX003 (ip), vehicle: water)?
Its T/C is 104 % of control.

And the T/C (dose: 1.25 mg/kg/injection, schedule: Q01DX001 (ip), vehicle: saline)?
The T/C was 178 % of control.

And the T/C (dose: 1.3 mg/kg/injection, schedule: Q01DX001 (ip), vehicle: water)?
Its T/C is 110 % of control.

And the T/C (dose: 1.5 mg/kg/injection, schedule: Q04DX003 (ip), vehicle: water)?
The T/C was 119 % of control.

What about the T/C (dose: 1.56 mg/kg/injection, schedule: Q01DX009 (ip), vehicle: saline) of the same compound?
The T/C was 182 % of control.

And the T/C (dose: 1.56 mg/kg/injection, schedule: Q01DX009 (ip), vehicle: water)?
Its T/C is 173 % of control and 194 % of control.

What about the T/C (dose: 1.56 mg/kg/injection, schedule: Q04DX003 (ip), vehicle: saline) of the same compound?
Its T/C is 187 % of control.

What about the T/C (dose: 1.8 mg/kg/injection, schedule: Q01DX001 (ip), vehicle: water) of the same compound?
The T/C was 110 % of control.

And the T/C (dose: 2.0 mg/kg/injection, schedule: Q03HX008 (ip), vehicle: saline)?
The T/C was 90 % of control.

And the T/C (dose: 2.0 mg/kg/injection, schedule: Q04DX003 (ip), vehicle: saline)?
Its T/C is 118 % of control.

What about the T/C (dose: 2.0 mg/kg/injection, schedule: Q04DX003 (ip), vehicle: water) of the same compound?
Its T/C is 111 % of control and 118 % of control.

And the T/C (dose: 2.34 mg/kg/injection, schedule: Q01DX009 (ip), vehicle: water)?
Its T/C is 108 % of control.

And the T/C (dose: 2.34 mg/kg/injection, schedule: Q04DX003 (ip), vehicle: water)?
The T/C was 104 % of control.

What about the T/C (dose: 2.4 mg/kg/injection, schedule: Q01DX001 (ip), vehicle: water) of the same compound?
The T/C was 124 % of control.

What about the T/C (dose: 2.5 mg/kg/injection, schedule: Q01DX005 (ip), vehicle: saline) of the same compound?
The T/C was 96 % of control.

And the T/C (dose: 3.13 mg/kg/injection, schedule: Q01DX009 (ip), vehicle: water)?
The T/C was 90 % of control.

What about the T/C (dose: 3.13 mg/kg/injection, schedule: Q04DX003 (ip), vehicle: saline) of the same compound?
Its T/C is 197 % of control.

What about the T/C (dose: 3.2 mg/kg/injection, schedule: Q01DX001 (ip), vehicle: water) of the same compound?
Its T/C is 124 % of control.

What about the T/C (dose: 3.33 mg/kg/injection, schedule: Q01DX009 (ip), vehicle: water) of the same compound?
The T/C was 83 % of control.

What about the T/C (dose: 3.5 mg/kg/injection, schedule: Q01DX001 (ip), vehicle: saline) of the same compound?
Its T/C is 177 % of control.

And the T/C (dose: 4.0 mg/kg/injection, schedule: Q03HX024 (ip), vehicle: saline)?
Its T/C is 190 % of control.

What about the T/C (dose: 4.0 mg/kg/injection, schedule: Q04DX003 (ip), vehicle: water) of the same compound?
The T/C was 119 % of control and 122 % of control.

What about the T/C (dose: 4.68 mg/kg/injection, schedule: Q04DX003 (ip), vehicle: water) of the same compound?
Its T/C is 120 % of control.

And the T/C (dose: 4.7 mg/kg/injection, schedule: Q04DX003 (ip), vehicle: water)?
Its T/C is 114 % of control.

And the T/C (dose: 5.0 mg/kg/injection, schedule: Q01DX009 (ip), vehicle: water)?
Its T/C is 90 % of control.

And the T/C (dose: 5.0 mg/kg/injection, schedule: Q03HX008 (ip), vehicle: saline)?
Its T/C is 97 % of control.

And the T/C (dose: 5.0 mg/kg/injection, schedule: Q04DX003 (ip), vehicle: saline)?
Its T/C is 92 % of control.

And the T/C (dose: 5.6 mg/kg/injection, schedule: Q01DX001 (ip), vehicle: water)?
The T/C was 124 % of control.

What about the T/C (dose: 6.0 mg/kg/injection, schedule: Q04DX003 (ip), vehicle: water) of the same compound?
The T/C was 123 % of control.

What about the T/C (dose: 6.25 mg/kg/injection, schedule: Q01DX009 (ip), vehicle: water) of the same compound?
Its T/C is 155 % of control.

What about the T/C (dose: 6.25 mg/kg/injection, schedule: Q04DX003 (ip), vehicle: saline) of the same compound?
Its T/C is 185 % of control.

And the T/C (dose: 6.66 mg/kg/injection, schedule: Q01DX009 (ip), vehicle: water)?
Its T/C is 60 % of control.

And the T/C (dose: 8.0 mg/kg/injection, schedule: Q03HX024 (ip), vehicle: saline)?
The T/C was 89 % of control.

What about the T/C (dose: 8.0 mg/kg/injection, schedule: Q04DX003 (ip), vehicle: saline) of the same compound?
Its T/C is 114 % of control.

What about the T/C (dose: 8.0 mg/kg/injection, schedule: Q04DX003 (ip), vehicle: water) of the same compound?
The T/C was 113 % of control.

And the T/C (dose: 12.0 mg/kg/injection, schedule: Q04DX003 (ip), vehicle: water)?
Its T/C is 122 % of control.

And the T/C (dose: 12.5 mg/kg/injection, schedule: Q01DX001 (ip), vehicle: water)?
Its T/C is 110 % of control.

And the T/C (dose: 12.5 mg/kg/injection, schedule: Q01DX009 (ip), vehicle: water)?
The T/C was 173 % of control.

What about the T/C (dose: 13.3 mg/kg/injection, schedule: Q01DX001 (ip), vehicle: saline) of the same compound?
Its T/C is 86 % of control.

What about the T/C (dose: 16.0 mg/kg/injection, schedule: Q04DX003 (ip), vehicle: saline) of the same compound?
Its T/C is 116 % of control and 105 % of control.

And the T/C (dose: 16.0 mg/kg/injection, schedule: Q04DX003 (ip), vehicle: water)?
The T/C was 123 % of control and 110 % of control and 95 % of control.

What about the T/C (dose: 16.0 mg/kg/injection, schedule: Q04DX003 (iv), vehicle: saline) of the same compound?
The T/C was 95 % of control.

And the T/C (dose: 18.7 mg/kg/injection, schedule: Q04DX003 (ip), vehicle: water)?
Its T/C is 157 % of control.

What about the T/C (dose: 24.0 mg/kg/injection, schedule: Q04DX003 (ip), vehicle: water) of the same compound?
The T/C was 96 % of control.

And the T/C (dose: 25.0 mg/kg/injection, schedule: Q01DX001 (ip), vehicle: water)?
The T/C was 89 % of control.

And the T/C (dose: 25.0 mg/kg/injection, schedule: Q01DX009 (ip), vehicle: water)?
The T/C was 231 % of control.

And the T/C (dose: 25.0 mg/kg/injection, schedule: Q04DX003 (ip), vehicle: saline)?
The T/C was 91 % of control.

What about the T/C (dose: 32.0 mg/kg/injection, schedule: Q04DX003 (ip), vehicle: saline) of the same compound?
The T/C was 106 % of control and 89 % of control.

And the T/C (dose: 32.0 mg/kg/injection, schedule: Q04DX003 (ip), vehicle: water)?
Its T/C is 111 % of control.

What about the T/C (dose: 37.5 mg/kg/injection, schedule: Q04DX003 (ip), vehicle: water) of the same compound?
The T/C was 104 % of control.

And the T/C (dose: 75.0 mg/kg/injection, schedule: Q04DX003 (ip), vehicle: water)?
Its T/C is 98 % of control.

What about the T/C (dose: 31.3 micrograms/kg/injection, schedule: Q03HX024 (ip), vehicle: saline) of the same compound?
Its T/C is 175 % of control.
